The text below walks through data of PMC10578488.

Protein sequences, listed by entry. Tags and fused reporters are not part of them. Lines headed by an entry give the natural chain unless they say otherwise; changes in a name come on top. Chains listed by the source or under a name are the forms on record and can include a tag or linker. Residues count along the entry.
UniProt Q969L4: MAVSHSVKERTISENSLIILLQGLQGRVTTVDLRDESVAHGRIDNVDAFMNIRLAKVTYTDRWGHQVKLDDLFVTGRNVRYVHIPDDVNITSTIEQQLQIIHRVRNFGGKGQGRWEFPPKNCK
UniProt P83369: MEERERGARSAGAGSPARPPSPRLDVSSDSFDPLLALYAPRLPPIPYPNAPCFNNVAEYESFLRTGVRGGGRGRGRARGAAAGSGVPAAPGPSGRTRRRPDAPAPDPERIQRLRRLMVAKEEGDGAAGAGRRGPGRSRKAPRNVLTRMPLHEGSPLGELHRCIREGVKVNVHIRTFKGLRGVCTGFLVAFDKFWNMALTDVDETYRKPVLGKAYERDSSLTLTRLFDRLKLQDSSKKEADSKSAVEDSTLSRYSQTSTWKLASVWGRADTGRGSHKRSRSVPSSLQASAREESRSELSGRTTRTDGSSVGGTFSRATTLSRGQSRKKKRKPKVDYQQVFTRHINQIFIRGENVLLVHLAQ
MBP-168N (Lsm11 amino acids 1-168 fused amino-terminally to MBP): residues 1-168 of P83369
MBP-105N (Lsm11 amino acids 1-105 fused amino-terminally to MBP): residues 1-105 of P83369
MBP-65N (Lsm11 amino acids 1-65 fused amino-terminally to MBP): residues 1-65 of P83369
MBP-Δ40 (Lsm11 amino acids 41-169 fused amino-terminally to MBP): residues 41-169 of P83369
MBP-168N R72,74A (P83369, form named): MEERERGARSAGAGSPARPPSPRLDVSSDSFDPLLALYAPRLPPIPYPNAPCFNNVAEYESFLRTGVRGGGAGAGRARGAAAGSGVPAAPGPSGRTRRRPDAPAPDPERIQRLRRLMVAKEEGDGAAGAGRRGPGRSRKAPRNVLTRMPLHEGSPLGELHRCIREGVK
MBP-168N R72A (P83369, form named): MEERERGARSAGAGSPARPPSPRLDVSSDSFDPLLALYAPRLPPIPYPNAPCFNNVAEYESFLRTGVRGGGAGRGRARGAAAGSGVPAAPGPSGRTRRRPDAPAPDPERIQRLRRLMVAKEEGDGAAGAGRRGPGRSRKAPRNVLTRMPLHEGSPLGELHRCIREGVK
MBP-168N R74A (P83369, form named): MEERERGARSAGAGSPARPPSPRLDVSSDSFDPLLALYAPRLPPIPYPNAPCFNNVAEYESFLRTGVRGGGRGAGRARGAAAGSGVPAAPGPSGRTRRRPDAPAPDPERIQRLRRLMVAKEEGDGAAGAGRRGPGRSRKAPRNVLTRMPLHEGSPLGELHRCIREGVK
UniProt Q9BQA1: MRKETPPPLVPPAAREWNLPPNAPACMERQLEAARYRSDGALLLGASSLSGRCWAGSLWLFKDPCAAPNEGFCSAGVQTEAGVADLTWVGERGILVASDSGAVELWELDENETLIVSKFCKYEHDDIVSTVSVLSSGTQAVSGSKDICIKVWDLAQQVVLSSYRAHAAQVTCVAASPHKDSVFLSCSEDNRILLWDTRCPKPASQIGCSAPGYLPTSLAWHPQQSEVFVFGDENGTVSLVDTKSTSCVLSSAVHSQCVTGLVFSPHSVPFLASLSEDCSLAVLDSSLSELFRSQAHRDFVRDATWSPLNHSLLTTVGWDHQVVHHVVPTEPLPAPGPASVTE
UniProt P54105: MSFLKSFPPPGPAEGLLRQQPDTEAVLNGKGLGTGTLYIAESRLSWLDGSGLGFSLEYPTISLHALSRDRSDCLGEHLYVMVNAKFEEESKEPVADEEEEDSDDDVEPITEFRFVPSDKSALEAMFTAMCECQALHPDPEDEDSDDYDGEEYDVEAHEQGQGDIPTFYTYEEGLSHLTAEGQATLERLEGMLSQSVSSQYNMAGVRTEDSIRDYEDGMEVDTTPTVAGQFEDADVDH
UniProt O14744: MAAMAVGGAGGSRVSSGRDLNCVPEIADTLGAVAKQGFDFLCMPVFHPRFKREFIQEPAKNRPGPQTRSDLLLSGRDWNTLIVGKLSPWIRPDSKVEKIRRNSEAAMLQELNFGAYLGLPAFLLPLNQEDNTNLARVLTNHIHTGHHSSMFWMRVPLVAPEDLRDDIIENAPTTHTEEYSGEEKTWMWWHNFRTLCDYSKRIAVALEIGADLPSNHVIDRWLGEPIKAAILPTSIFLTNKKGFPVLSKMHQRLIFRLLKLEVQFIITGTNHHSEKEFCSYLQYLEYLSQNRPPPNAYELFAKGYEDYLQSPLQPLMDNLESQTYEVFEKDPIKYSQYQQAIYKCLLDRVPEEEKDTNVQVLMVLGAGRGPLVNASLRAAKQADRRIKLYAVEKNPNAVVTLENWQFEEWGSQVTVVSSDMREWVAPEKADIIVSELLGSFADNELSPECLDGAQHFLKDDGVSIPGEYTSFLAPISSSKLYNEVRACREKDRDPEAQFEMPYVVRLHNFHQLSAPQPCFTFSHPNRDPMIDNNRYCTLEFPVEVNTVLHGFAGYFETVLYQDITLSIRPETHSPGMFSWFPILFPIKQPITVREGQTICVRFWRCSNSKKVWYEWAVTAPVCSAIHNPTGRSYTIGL
UniProt Q61189: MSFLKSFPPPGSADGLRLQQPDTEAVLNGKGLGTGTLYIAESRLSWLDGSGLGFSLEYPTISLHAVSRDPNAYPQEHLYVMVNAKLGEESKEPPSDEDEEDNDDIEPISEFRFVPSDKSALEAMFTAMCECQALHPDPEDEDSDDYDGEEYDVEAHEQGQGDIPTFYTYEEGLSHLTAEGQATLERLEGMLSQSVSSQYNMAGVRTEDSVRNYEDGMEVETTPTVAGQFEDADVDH

Results are given in words; binding and its absence hold for the method and conditions named. Binding seen in cells or lysates may run through a third protein. Some binding calls cover weakened binding; strength is not graded here.

Experiment [1] addresses T1, Lsm10/11ΔL heterodimer (MBP-Lsm10 with Lsm11 lacking the internal loop, amino acids 211-322) (human) (UniProt Q969L4+P83369). The experiment in a line: co-IP; recombinant heterodimer incubated 1 h on ice with 750 µL HeLa or mouse myeloma cytoplasmic extract, precipitated with rabbit α10/11 serum on protein A beads; silver staining, mass spectrometry, western blotting; only the target purified. Background: A western blot detects proteins with antibodies after separation by electrophoresis.

In experiment [2] the target is T2, Lsm10-MBP/Lsm11 heterodimer (wild-type, full-length Lsm11) (human) (UniProt Q969L4+P83369). Described as above.
For experiment [3], the target named is T2, Lsm10-MBP/Lsm11 heterodimer (wild-type, full-length Lsm11) (human). The experiment in a line: pull-down; MBP-Lsm10/Lsm11 heterodimers or MBP-fused Lsm11 fragments incubated with HeLa or mouse myeloma cytoplasmic extract (Fig. 5A: without or with SmE/F/G heterotrimer), collected on amylose beads; silver or Coomassie staining, western blotting; only the target purified.

In experiment [4] the target is MBP-105N (Lsm11 amino acids 1-105 fused amino-terminally to MBP) (human) (UniProt P83369). Described as above.
Experiment [5] deals with MBP-65N (Lsm11 amino acids 1-65 fused amino-terminally to MBP) (human) (UniProt P83369). Described as above.
Experiment [6] deals with MBP-Δ40 (Lsm11 amino acids 41-169 fused amino-terminally to MBP) (human) (UniProt P83369). The description is as above.
Experiment [7] deals with T2, Lsm10-MBP/Lsm11 heterodimer (wild-type, full-length Lsm11) (human). The experiment can be described thus: co-IP; recombinant heterodimer incubated with mouse myeloma nuclear extract, precipitated with rabbit α10/11 serum on protein A beads; silver staining; only the target purified.
In experiment [8] the target is T1, Lsm10/11ΔL heterodimer (MBP-Lsm10 with Lsm11 lacking the internal loop, amino acids 211-322) (human). The experiment can be described thus: pull-down; MBP-Lsm10/Lsm11 heterodimers or MBP-fused Lsm11 fragments incubated with HeLa or mouse myeloma cytoplasmic extract (Fig. 5A: without or with SmE/F/G heterotrimer), collected on amylose beads; silver or Coomassie staining, western blotting; only the target purified.

The target of experiment [9] is MBP-168N (Lsm11 amino acids 1-168 fused amino-terminally to MBP) (human) (UniProt P83369). The experiment is described as above.
In another experiment the target is MBP-168N R72,74A (human) (UniProt P83369). The description is as above.
Another experiment has as its target MBP-168N R72A (human) (UniProt P83369). Described as above.
The target in a further experiment is MBP-168N R74A (human) (UniProt P83369). The experiment is described as above.

For “MEP50, endogenous, HeLa (from UniProt Q9BQA1 1-342)”, the binding result in experiment [1] was “binds”; in [2] it was “binds”; in experiment [3] it was “binds”; in experiment [4], “binds”; in experiment [5] it was “no binding”; in experiment [6], “binds”.
For the substance “pICln, endogenous, HeLa (from UniProt P54105 1-237)”, the binding result in experiment [1] is “binds”; in experiment [2], “binds”; in experiment [3], “binds”; in experiment [4] it was “binds”; in experiment [5], “no binding”; in experiment [6] it was “binds”.
As for “PRMT5, endogenous, HeLa (from UniProt O14744 1-637) (enzyme)”, the binding entry in experiment [1] is “binds”; in [2], “binds”; in experiment [3], “binds”; in experiment [4] it was “binds”; in experiment [5] it was “no binding”; in experiment [6], “binds”.
Regarding “pICln, endogenous, mouse myeloma cells (from UniProt Q61189 1-236)”, the binding result in experiment [7] was “binds”; in experiment [1] it was “binds”; in experiment [8] it was “binds”; in experiment [3] it was “binds”; in experiment [9], “binds weakly”; in the experiment with MBP-168N R72,74A (human) it was “no binding”. The binding entry in [4] is reported as “binds weakly”; in the experiment with MBP-168N R72A (human) it was “binds”; with MBP-168N R74A (human), “binds weakly”.
